Reference: PubChem BioAssay AID623901 (Broad Institute, 2012)
The campaign covered roughly 340,000 compounds. About 470 (0.14%) were called active. The shares of active, inactive and inconclusive entries below differ from those in the screen.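 The calls were made as follows: active = mean activation of 30% or more, with every replicate also reaching 30%; inconclusive = mean activation of 30% or more but some replicate falls short; inactive = the rest.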

Test: small molecules raising miR-122 sensor signal – cell-based, Huh7 psiCHECK-miR122, Renilla luciferase, single point, primary screen (AID 623901);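 also: 0% = median of neutral control wells and 100% = median of positive control wells; higher luciferase signal means stronger suppression of miR-122 activity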
Details: 48 h, at 12.5 µM, hits give high values

SMILES	activation
CCC(=O)N(C)C[C@@H]1Oc2ncc(C#Cc3cccnc3)cc2C(=O)N([C@H](C)CO)C[C@@H]1C	inactive: -4.15%
COCC(=O)Nc1ccc2c(c1)C(=O)N(C)[C@@H]1CC[C@H](CC(=O)NC3CCCC3)O[C@H]1CO2	inconclusive: 33.3%
CO[C@@H]1CN(C)C(=O)c2ccc(NC(=O)c3ccc(Oc4ccccc4)cc3)cc2OC[C@H](C)NC[C@H]1C	inconclusive: 31.8%
C[C@H](CO)N1C[C@H](C)[C@H](CN(C)Cc2ccc(C(=O)Nc3ccccc3N)cc2)Oc2ccc(NS(=O)(=O)c3ccc(F)cc3)cc2CC1=O	inactive: -162%
C[C@@H]1CN([C@@H](C)CO)S(=O)(=O)c2ccc(-c3cncnc3)cc2O[C@@H]1CN(C)C(=O)Cc1cccnc1	inactive: -10.4%
CCc1nnc(SCC(=O)Nc2ccc(N3CCOCC3)cc2)o1	active: 31.6%
C[C@H]1CN([C@@H](C)CO)C(=O)c2cc(-c3ccccc3F)cnc2O[C@H]1CN(C)C(=O)NC1CCCCC1	inactive: -13.2%
c1ccc(CCCNCCCn2cnc3c(OCc4ccccc4)ncnc32)cc1	active: 33.5%
O=[N+]([O-])c1ccc(O)c(/C=N/Nc2ccc(Cl)nn2)c1	active: 45.8%
CC(=O)Nc1ccc2c(c1)C(=O)N(C)[C@H]1CC[C@H](CC(=O)Nc3ccccc3Cl)O[C@@H]1CO2	inconclusive: 33.3%
CCCNC(=O)C[C@@H]1CC[C@@H]2[C@H](COc3ccc(NC(=O)Nc4ccccc4F)cc3C(=O)N2C)O1	inconclusive: 41.7%
CN1C(=O)c2cc(NC(=O)c3cccs3)ccc2OC[C@@H]2O[C@@H](CC(=O)O)CC[C@@H]21	inconclusive: 32.5%
O=C(C1CCCC1)N1C[C@H]2[C@@H](c3ccccc31)[C@H](CO)N2C(=O)Nc1cccc(F)c1	inconclusive: 32.6%
COc1ccc(C(=O)Nc2ccc3c(c2)OC[C@@H](C)N(C)C[C@H](C)[C@H](OC)CN(C)C3=O)cc1	inactive: -5.44%
CC(C)c1ccc(CNC(=O)CSCC(=O)Nc2ccc3ccccc3c2)cc1	inconclusive: 33.2%
C[C@H](CO)N1C[C@H](C)[C@@H](CN(C)CC2CCCCC2)OCCCC[C@H](C)Oc2ccc(NC(=O)Nc3cccc4ccccc34)cc2C1=O	active: 34%
CCOc1cc(C(=O)NC(C)COC)cc(OCC)c1OCC (configuration not stated)	inconclusive: 56.4%
CCC(=O)N1[C@H](CO)[C@@H](c2ccccc2)[C@@H]1CN(C(C)C)S(C)(=O)=O	inconclusive: 33.3%
C[C@@H]1CN([C@@H](C)CO)C(=O)c2cc(/C=C/c3ccccc3)cnc2O[C@@H]1CN(C)C(=O)Nc1ccccc1F	inactive: 0.869%
Cc1ccc(S(=O)(=O)N(C)C[C@H]2Oc3ncc(C#CCC(C)C)cc3C(=O)N([C@@H](C)CO)C[C@@H]2C)cc1	inactive: -23.2%
C[C@H]1CN([C@@H](C)CO)S(=O)(=O)c2ccc(C#CC(C)(C)O)cc2O[C@@H]1CN(C)Cc1ccc(-c2ccccc2)cc1	inconclusive: 31%
CN1C(=O)c2cc(NC(=O)Cc3ccccc3)ccc2OC[C@H]2O[C@@H](CC(=O)NCc3ccc(Cl)cc3)CC[C@@H]21	inconclusive: 50%
Cc1ccccc1-c1cnc2c(c1)C(=O)N([C@H](C)CO)C[C@H](C)[C@H](CN(C)C(=O)c1ccccc1)O2	inactive: 0.464%

SMILES	activation
CC(C)Oc1ccc(C(CCN)C2CCCCC2)cc1 (configuration not stated)	inconclusive: 31%
Cc1cc(C(=O)Nc2ccc3c(c2)C(=O)N(C)[C@H]2CC[C@H](CC(=O)N[C@H](C)c4ccccc4)O[C@H]2CO3)no1	inconclusive: 41.7%
CCOC(=O)C1CN(S(=O)(=O)c2ccccc2)CCN1S(=O)(=O)c1ccccc1 (configuration not stated)	inconclusive: 39.7%
c1ccc(-n2nnnc2NCCc2c[nH]c3ccccc23)cc1	inconclusive: 31.6%
CCC(=O)N1C[C@@H](C)[C@@H](OC)CN(C)C(=O)c2ccc(NC(=O)C3CCCCC3)cc2OC[C@H]1C	inactive: -2.5%
CO[C@@H]1CN(C)C(=O)c2cc(NC(=O)Nc3cc(Cl)cc(Cl)c3)ccc2OC[C@H](C)NC[C@H]1C	inconclusive: 33.5%
O=C(NC[C@H]1[C@@H](c2ccccc2)[C@@H](CO)N1CC1CCCC1)c1ccncc1	inconclusive: 100%
C/C=C/c1ccc([C@H]2[C@@H](CO)N[C@@H]2CN(CC(C)C)C(=O)c2ccccn2)cc1	inconclusive: 75%
C[C@H]1CN([C@@H](C)CO)S(=O)(=O)c2ccc(C#CC3CCCCC3)cc2O[C@@H]1CN(C)C	inconclusive: 31.3%
C/C=C/c1ccc([C@H]2[C@@H](CNC(=O)c3ccncc3)N(C(=O)CC)[C@H]2CO)cc1	inconclusive: 33.3%
COc1ccc(Cn2c(SCc3ccc(C)cc3)nc3cc(OC)c(OC)cc3c2=N)cc1Cl	inconclusive: 37.7%
CCCNC(=O)Nc1ccc2c(c1)C(=O)N(C)[C@H]1CC[C@@H](CC(=O)NCC3CCCCC3)O[C@@H]1CO2	active: 41.7%
CCC(=O)Nc1ccc2c(c1)C(=O)N(C)C[C@@H](OC)[C@H](C)CN(Cc1ccccc1OC)[C@@H](C)CO2	inactive: 2.13%
COc1cccc(NC(=O)Nc2ccc3c(c2)C(=O)N(C)C[C@@H](OC)[C@@H](C)CN[C@H](C)CO3)c1	inconclusive: 33.2%
COc1ccccc1C#Cc1ccc([C@H]2[C@@H](CO)N3CCCCN(CCC(F)(F)F)C[C@H]23)cc1	inconclusive: 31.2%
C[C@H](CO)N1C[C@H](C)[C@@H](CN(C)S(C)(=O)=O)Oc2cc(-c3ccccc3F)ccc2S1(=O)=O	inactive: -23.5%
CCCN(C)C[C@@H]1Oc2ncc(C#Cc3ccc(F)cc3)cc2C(=O)N([C@H](C)CO)C[C@@H]1C	inactive: 10.9%
C[C@@H]1CN([C@@H](C)CO)C(=O)c2cc(Br)cnc2O[C@H]1CN(C)Cc1ccc2c(c1)OCO2	inactive: 4.97%
CC(C)C#Cc1ccc2c(c1)O[C@@H](CN(C)C(=O)NC(C)C)[C@@H](C)CN([C@H](C)CO)S2(=O)=O	inactive: -5.6%
C[C@H](CO)N1C[C@H](C)[C@@H](CN(C)C(=O)C2CCOCC2)Oc2cc(-c3ccc(C(=O)N(C)C)cc3)ccc2S1(=O)=O	inactive: -12.2%
COCC(=O)N1[C@@H](CO)[C@@H]2c3ccccc3N(C(=O)C3CC3)C[C@@H]21	inconclusive: 33.3%
CC(Sc1ccsc1[N+](=O)[O-])C(=O)N1CCN(c2ccccn2)CC1 (configuration not stated)	inconclusive: 35.5%
N=c1n(CC(=O)c2ccc(Br)s2)c2ccccc2n1Cc1ccccc1	inconclusive: 35.2%

SMILES	activation
CCCNC(=O)N1C[C@@H]2[C@H](c3ccccc31)[C@@H](CO)N2Cc1cc(F)ccc1F	active: 35.9%
C[C@H]1CCCCO[C@@H](CN(C)CC2CCCCC2)[C@@H](C)CN([C@@H](C)CO)C(=O)c2cc(NC(=O)Nc3cccc4ccccc34)ccc2O1	active: 33.5%
C/C=C/c1ccc([C@@H]2[C@@H](CN(C)C(=O)CC)N(C(=O)NC(C)C)[C@H]2CO)cc1	inconclusive: 58.3%
O=S(=O)(Nc1nccs1)c1ccc(NS(=O)(=O)c2cccs2)cc1	active: 38.6%
CC(=O)N(C)C[C@H]1Oc2cc(/C=C/c3ccccc3)ccc2S(=O)(=O)N([C@H](C)CO)C[C@H]1C	inactive: 15.1%
CCN(C[C@@H]1[C@@H](c2ccccc2)[C@@H](CO)N1S(C)(=O)=O)C(=O)C1CC1	inconclusive: 75%
COC(=O)c1c(N)nc(C)n1-c1ccc(OC)cc1	active: 33.8%
CC(=O)Nc1ccc2c(c1)C(=O)N(C)[C@@H]1CC[C@H](CC(=O)NC3CCCCC3)O[C@H]1CO2	inconclusive: 33.3%
CCCNC(=O)Nc1ccc2c(c1)OC[C@H](C)NC[C@@H](C)[C@@H](OC)CN(C)C2=O	inactive: -1.93%
C[C@H](CO)N1C[C@H](C)[C@H](CN(C)CC2CCCCC2)Oc2ccc(NC(=O)Nc3ccc(C(F)(F)F)cc3)cc2C1=O	active: 44.1%
Cc1ccccc1C(=O)Oc1ccc(Br)cc1C(=S)N1CCCC1	inactive: -114%
C[C@@H]1CN([C@@H](C)CO)S(=O)(=O)c2ccc(Br)cc2O[C@@H]1CN(C)S(=O)(=O)c1cn(C)cn1	inactive: 8.79%
C[C@H]1CN([C@@H](C)CO)C(=O)c2cc(NC(=O)Nc3ccc(C(F)(F)F)cc3)ccc2O[C@H]1CN(C)CC1CCCCC1	inconclusive: 30.4%
CN(C)S(=O)(=O)c1cccc(NC(=S)N/N=C/c2ccc(O)c(O)c2O)c1	active: 69.8%
C/C=C/c1ccc2c(c1)O[C@H](CN(C)C(=O)c1cccnc1)[C@@H](C)CN([C@H](C)CO)S2(=O)=O	inactive: -4.86%
O=C(C1CC1)N(CCN(C(=O)C1CC1)c1ccccc1)c1ccccc1	active: 30.4%
CN(C[C@H]1N[C@@H](CO)[C@@H]1c1ccc(C2=CCCC2)cc1)C(=O)c1ccc(F)cc1	inconclusive: 35.7%
CCOc1ccc(C(CCc2ccccc2)NC(=O)c2ccccc2F)cc1OCC (configuration not stated)	inconclusive: 45.9%
CCNC(=O)C[C@@H]1CC[C@H]2[C@H](COc3ccc(NC(=O)c4cccc(C(F)(F)F)c4)cc3C(=O)N2C)O1	inconclusive: 33.3%
CN1C(=O)c2cc(NC(=O)c3cccc(F)c3)ccc2OC[C@@H]2O[C@H](CC(=O)Nc3ccccc3)CC[C@H]21	active: 55%
C[C@@H]1CN([C@H](C)CO)S(=O)(=O)c2ccc(C3=CCCC3)cc2O[C@@H]1CN(C)C(=O)Cc1ccncc1	active: 33%
